Consider 153 variants from a collection of fitness landscapes (doi:10.1016/j.celrep.2020.107928).

To fix the notation:
B1: Caulobacter ParB omega fusion; a variant is named by its letters at X, in order, B8GW30 (parent)
chain: MESVVVGEPGMSEGRRGLGRGLSALLGEVDAAPAQAPGEQLGGSREAPIEILQRNPDQPRRTFREEDLEDLSNSIREKGVLQPILVRPSPDTAGEYQIVAGERAWRAAQRAGLKTVPIMVRELDDLAVLEIGIIENVQRADLNVLEEALSYKVLMEKFERTQENIAQTIGKSXSHVANXMRLLXLPDEVQSYLVSGELTAXHARAIAAAADPVALAKQIIEGGLSVRETEALARKAPNLSAGKSKGGRPPRVKDTDTQALESDLSSVLGLDVSIDHRGSTGTLTITYATLEQLDDLCNRLTRGI

Over roughly 81,000 sequences, “one-hybrid fitness for binding parS DNA” has its median near -0.17; the highest 2% begin near 0.51. This is one part of the list.

Variants of B1 are the subject of the assay. Briefly: one-hybrid fitness for binding parS DNA (scaled: cognate 1, non-cognate 0); higher = stronger binding. Conditions: with parS DNA site. The essentials:
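Selection: bacterial one-hybrid in E. coli USO, HIS3 reporter with the site 19 bp from the promoter, 48 hours at 37°C on M9-minus-histidine plus 0.1 mM IPTG and 5 mM 3-AT. Libraries were Caulobacter ParB with four randomised specificity codons, sequenced on Illumina before and after selection. Fitness is the rescaled log change in variant-to-wild-type read ratio, anchored to the cognate and non-cognate sites.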
With ELMW, the “one-hybrid fitness for binding parS DNA” value is not above 0.2. For the variant QSSC, the “one-hybrid fitness for binding parS DNA” value is not above 0.2. Next, RCFT: 0.955; QALG: not above 0.2; ISKT: not above 0.2. Next, MHYP: not above 0.2; QTNN: not above 0.2. As to SFNV, the “one-hybrid fitness for binding parS DNA” value is not above 0.2. Take THPR: the “one-hybrid fitness for binding parS DNA” value is not above 0.2. Next, CNAD: not above 0.2; PRWS: not above 0.2; HTHL: not above 0.2. Next, RFIY: not above 0.2; QYRV: not above 0.2. Next, KRST: not above 0.2; QFGV: not above 0.2; NPVT: not above 0.2.

Turning to HRRI, the “one-hybrid fitness for binding parS DNA” value was not above 0.2. On to WHWG, for which the “one-hybrid fitness for binding parS DNA” value is not above 0.2. Under NNCS stands not above 0.2; under VTCV, not above 0.2. Next, VQQE: not above 0.2; EWQN: not above 0.2; TRHP: not above 0.2. Under SDHS stands not above 0.2; under IRPE, not above 0.2; under QGNG, not above 0.2. Take NKSF: the “one-hybrid fitness for binding parS DNA” value was not above 0.2. For GKCS, the “one-hybrid fitness for binding parS DNA” value is not above 0.2. Consider GDEP, for which the “one-hybrid fitness for binding parS DNA” value is not above 0.2. Under YCAC stands not above 0.2. As for DSST, the “one-hybrid fitness for binding parS DNA” value was not above 0.2. As for PNAM, the “one-hybrid fitness for binding parS DNA” value was not above 0.2. Under NKAS stands not above 0.2.

For KAPY, the “one-hybrid fitness for binding parS DNA” value is not above 0.2. Next, FHIR: not above 0.2; FDQL: not above 0.2. Under SIMV stands not above 0.2; under MRLQ, not above 0.2.

Regarding RYIN, the “one-hybrid fitness for binding parS DNA” value was found to be 0.269.

As to MMQL, the “one-hybrid fitness for binding parS DNA” value is not above 0.2. Under KTNR stands not above 0.2; under QLTD, not above 0.2; under SSIQ, not above 0.2.

In the case of KQQW, the “one-hybrid fitness for binding parS DNA” value was not above 0.2. Under KYQC stands not above 0.2. Next, RQPC: 0.426; RTGA: 0.679. Under RKEK stands not above 0.2. For the variant GKEY, the “one-hybrid fitness for binding parS DNA” value is not above 0.2. LYRL: the “one-hybrid fitness for binding parS DNA” value is not above 0.2.

Consider FWAY, for which the “one-hybrid fitness for binding parS DNA” value was not above 0.2.

Regarding WSAR, the “one-hybrid fitness for binding parS DNA” value is not above 0.2. LSKR: the “one-hybrid fitness for binding parS DNA” value was not above 0.2. Under GRTG stands not above 0.2; under PMYT, not above 0.2. For the variant RDVS, the “one-hybrid fitness for binding parS DNA” value was not above 0.2. Under QMMG stands not above 0.2. Under WKVG stands not above 0.2; under PYLV, not above 0.2; under QNNK, not above 0.2. Under KAVF stands not above 0.2. On to RNFM, for which the “one-hybrid fitness for binding parS DNA” value was not above 0.2. Under NTAK stands not above 0.2. Consider HRWA, for which the “one-hybrid fitness for binding parS DNA” value was not above 0.2. Under PANE stands not above 0.2; under AWLI, not above 0.2; under NAKT, not above 0.2.

As for GRLA, the “one-hybrid fitness for binding parS DNA” value was not above 0.2. Next, THLL: not above 0.2. Next, HDQW: not above 0.2; PKTR: not above 0.2; TVNH: not above 0.2. Next, RMWA: 0.634; WSRS: not above 0.2. Consider NMHK, for which the “one-hybrid fitness for binding parS DNA” value is not above 0.2. For SLHR, the “one-hybrid fitness for binding parS DNA” value is not above 0.2.

Take AQFF: the “one-hybrid fitness for binding parS DNA” value was not above 0.2. With SAIL, the “one-hybrid fitness for binding parS DNA” value is not above 0.2. Next, MCRW: not above 0.2.

As for FFSL, the “one-hybrid fitness for binding parS DNA” value is not above 0.2. Take GAHR: the “one-hybrid fitness for binding parS DNA” value was not above 0.2. For the variant NGDS, the “one-hybrid fitness for binding parS DNA” value was not above 0.2. Next, YRFG: not above 0.2; NSDC: not above 0.2; PLGC: not above 0.2. Under RPVE stands not above 0.2; under KPAA, not above 0.2. For WTRG, the “one-hybrid fitness for binding parS DNA” value is not above 0.2. Next, IKAR: not above 0.2; VKYL: not above 0.2; YLGC: not above 0.2. Under EQSL stands not above 0.2; under DRWI, not above 0.2. Regarding MKHS, the “one-hybrid fitness for binding parS DNA” value is not above 0.2. Next, SCQP: not above 0.2. Next, YSVK: not above 0.2.

As to DHSD, the “one-hybrid fitness for binding parS DNA” value was not above 0.2. Regarding LMKN, the “one-hybrid fitness for binding parS DNA” value was not above 0.2.

Turning to KFGE, the “one-hybrid fitness for binding parS DNA” value is not above 0.2.

For VDIS, the “one-hybrid fitness for binding parS DNA” value is not above 0.2.

In the case of YYQC, the “one-hybrid fitness for binding parS DNA” value is not above 0.2. Next, PPHP: not above 0.2; FPPI: not above 0.2; GDPR: not above 0.2. Next, SIRG: not above 0.2; AKGR: not above 0.2. Under QLEK stands not above 0.2; under TIYT, not above 0.2. PVCT: the “one-hybrid fitness for binding parS DNA” value is not above 0.2. Next, RFYE: not above 0.2; VQFV: not above 0.2; HSKY: not above 0.2. As for FQHG, the “one-hybrid fitness for binding parS DNA” value is not above 0.2. As to NARD, the “one-hybrid fitness for binding parS DNA” value is not above 0.2. Turning to NQKY, the “one-hybrid fitness for binding parS DNA” value was not above 0.2. Under QIKY stands not above 0.2.

For RRPR, the “one-hybrid fitness for binding parS DNA” value was not above 0.2. Under DKMR stands not above 0.2; under LGQE, not above 0.2; under TKHC, not above 0.2.

With TCAP, the “one-hybrid fitness for binding parS DNA” value is not above 0.2. Under YIPG stands not above 0.2.

In the case of FGGT, the “one-hybrid fitness for binding parS DNA” value is not above 0.2. Under RSMM stands 0.308; under PPMM, not above 0.2; under GEIF, not above 0.2. YLSL: the “one-hybrid fitness for binding parS DNA” value was not above 0.2.

Take RKSV: the “one-hybrid fitness for binding parS DNA” value is not above 0.2. Consider LFLS, for which the “one-hybrid fitness for binding parS DNA” value was not above 0.2. Under YPCC stands not above 0.2; under KTND, not above 0.2; under NQTI, not above 0.2. TPPM: the “one-hybrid fitness for binding parS DNA” value is not above 0.2.

As for PKAP, the “one-hybrid fitness for binding parS DNA” value was not above 0.2.

With DQAD, the “one-hybrid fitness for binding parS DNA” value was not above 0.2.

For the variant PLNT, the “one-hybrid fitness for binding parS DNA” value is not above 0.2. Next, HWIG: not above 0.2; AYIN: not above 0.2; GIWS: not above 0.2.

On to LPVD, for which the “one-hybrid fitness for binding parS DNA” value was not above 0.2. Turning to RLEH, the “one-hybrid fitness for binding parS DNA” value is 0.228.

In the case of QMMD, the “one-hybrid fitness for binding parS DNA” value was not above 0.2. Under MSLW stands not above 0.2.

As for SCRN, the “one-hybrid fitness for binding parS DNA” value was not above 0.2. In the case of DSMD, the “one-hybrid fitness for binding parS DNA” value is not above 0.2. Next, TNDR: not above 0.2.

For the variant ASPI, the “one-hybrid fitness for binding parS DNA” value is not above 0.2. Under RLSN stands 0.455; under HHST, not above 0.2; under DING, not above 0.2.

With HITR, the “one-hybrid fitness for binding parS DNA” value is not above 0.2. Next, RIRC: 0.847.
